Hit rate of the full screen: of about 350,000 compounds, about 31,000 (8.9%) were called active. This list was built around the results that the source calls inconclusive (neither active nor inactive); the mix of calls is not that of the screen. Calls follow the shape of the dose curve; as a rule, active = well fitted inhibition curve with a large enough effect; inconclusive = small, poorly fitted or top-dose-only effect; inactive = no such curve, though single readings can be large or run the other way. Potencies of inconclusive entries are doubtful fits and often do not repeat.
Target: Histone-lysine N-methyltransferase EHMT2 (Homo sapiens) (UniProt Q96KQ7)
Assay: qHTS Assay for Inhibitors of Histone Lysine Methyltransferase G9a; also: nearly all actives have a fitted effect of over 75% in size
Conditions: G9a H3K9 monomethylation, AlphaScreen, 2 h; activity, negative = inhibition: at 59 µM (top of the series) unless noted
Method in brief: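 G9a (20 nM) was preincubated 15 min with compound, then reacted 2 h at room temperature with 500 nM biotin-H3K9 peptide and 20 µM SAM. Monomethyl-H3K9 detected by AlphaScreen using anti-H3K9me1 antibody.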
% is scaled to controls: 0 for no effect and ±100 for the full control effect; potency is read from the fitted curve at half-maximal effect; tags tell the direction and shape of the fitted curve.

Sequence of UniProt Q96KQ7 (Q96KQ7 whole entry, looked up): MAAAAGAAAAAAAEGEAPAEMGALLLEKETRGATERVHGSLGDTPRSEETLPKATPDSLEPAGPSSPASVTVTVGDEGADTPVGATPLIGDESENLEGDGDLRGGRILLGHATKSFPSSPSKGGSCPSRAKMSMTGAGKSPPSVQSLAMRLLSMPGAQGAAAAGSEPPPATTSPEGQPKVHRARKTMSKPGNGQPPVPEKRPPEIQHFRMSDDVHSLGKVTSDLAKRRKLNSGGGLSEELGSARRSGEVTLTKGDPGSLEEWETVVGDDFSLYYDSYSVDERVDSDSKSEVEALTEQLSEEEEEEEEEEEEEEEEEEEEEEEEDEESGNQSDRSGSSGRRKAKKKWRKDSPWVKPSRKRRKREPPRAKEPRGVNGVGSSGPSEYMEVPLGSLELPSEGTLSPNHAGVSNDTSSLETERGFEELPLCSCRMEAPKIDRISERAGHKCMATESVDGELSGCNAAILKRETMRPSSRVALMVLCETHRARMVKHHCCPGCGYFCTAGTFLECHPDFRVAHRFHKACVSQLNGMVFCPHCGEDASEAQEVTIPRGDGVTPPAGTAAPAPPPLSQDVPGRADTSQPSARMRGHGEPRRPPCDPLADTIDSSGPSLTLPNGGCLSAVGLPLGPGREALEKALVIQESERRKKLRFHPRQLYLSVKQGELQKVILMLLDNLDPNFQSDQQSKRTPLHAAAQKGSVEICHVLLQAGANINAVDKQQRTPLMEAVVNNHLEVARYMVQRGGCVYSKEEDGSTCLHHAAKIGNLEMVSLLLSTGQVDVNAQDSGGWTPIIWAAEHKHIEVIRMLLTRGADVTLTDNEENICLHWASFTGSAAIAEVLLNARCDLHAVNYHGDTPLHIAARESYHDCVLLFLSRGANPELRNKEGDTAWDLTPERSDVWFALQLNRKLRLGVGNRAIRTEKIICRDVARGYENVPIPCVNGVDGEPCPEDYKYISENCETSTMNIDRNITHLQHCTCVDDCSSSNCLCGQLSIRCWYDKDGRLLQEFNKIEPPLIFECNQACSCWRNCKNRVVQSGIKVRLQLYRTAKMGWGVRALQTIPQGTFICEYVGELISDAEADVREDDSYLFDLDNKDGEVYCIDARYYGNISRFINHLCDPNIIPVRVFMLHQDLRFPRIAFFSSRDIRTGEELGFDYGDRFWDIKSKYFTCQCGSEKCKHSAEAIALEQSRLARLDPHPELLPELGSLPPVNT

Row | Structure (SMILES) | Potency | activity, negative = inhibition
1 | CCCC(=O)Nc1sc(C)c(C)c1C#N | active: 44.7 µM | –
2 | COc1ccccc1C1CC(c2ccc(NS(C)(=O)=O)cc2)=NN1C(=O)c1ccccc1 (stereo not given) | inconclusive: 25.1 µM [inhibitor, partial curve, poor fit] | –
3 | Cc1ccc(NC(=O)Nc2nnc(SCC(=O)N(C(C)C)C(C)C)s2)cc1 | inactive | –
4 | O=S(=O)(NC1CCN(Cc2ccccc2)CC1)c1ccc2ccccc2c1 | inactive | –
5 | CN(c1ccc(F)cc1)S(=O)(=O)c1ccc(Cl)c(C(=O)NC2(C)CCS(=O)(=O)C2)c1 (stereo not given) | – | inactive: 6.03% [at 12.7 µM]
6 | COC(=O)c1ccc(OCC(=O)Nc2ccccc2C(=O)NC2CC2)cc1 | – | inactive: 22.2% [at 12.7 µM]
7 | CCOC(=O)c1sc2ccccc2c1S(=O)(=O)Nc1ccc(OC)c(Cl)c1 | inconclusive: 31.6 µM [inhibitor, single point] | –
8 | Cc1noc(NS(=O)(=O)c2ccc(NC(=O)CSc3nc4c(cc3C#N)CCCC4)cc2)c1C | active: 25.1 µM | –
9 | CNc1nc(-c2ccccc2)[n+](-c2ccc(C)cc2)s1 | active: 1.41 µM | –
10 | Cc1cc(C(=O)NC(=S)Nc2ccccc2N2CCCC2)ccc1[N+](=O)[O-] | inconclusive: 31.6 µM [inhibitor, single point] | –
11 | Cc1ccc(NC(=O)CSc2cccc[n+]2[O-])c([N+](=O)[O-])c1 | inactive | –
12 | N#Cc1cccc(S(=O)(=O)NCC(=O)NCc2ccc3c(c2)OCO3)c1 | inconclusive: 35.5 µM [inhibitor, single point] | –
13 | CC(C)(C)C1CCCCC1NC(=O)c1ccncc1 (stereo not given) | inactive | –
14 | CCOC(=O)N1CCC(NS(=O)(=O)c2cc3c(cc2C)NC(=O)CO3)CC1 | inconclusive: 25.1 µM [inhibitor, partial curve, poor fit] | –
15 | CC1(C(=O)NCc2cccnc2)CCC(=O)N1CCc1ccccc1 (stereo not given) | inconclusive: 39.8 µM [inhibitor, single point] | –
16 | COc1ccc(C2CC(c3cccs3)=NN2c2nc(-c3ccccc3)cs2)cc1OC (stereo not given) | inconclusive: 28.2 µM [inhibitor, single point] | –
17 | CCc1cccc(CC)c1N(COC)C(=O)Cn1c(C(C)O)nc2ccccc21 (stereo not given) | – | inactive: 2.54% [at 2.33 µM]
18 | CC(=O)N1c2ccc(S(=O)(=O)N3CCCC3)cc2CC1C(=O)NCc1ccccc1F (stereo not given) | inactive | –
19 | COc1cccc(NC(=O)c2ccc(-c3ccccc3[N+](=O)[O-])o2)c1 | inconclusive: 56.2 µM [inhibitor, partial curve, poor fit] | –
20 | COC(=O)c1nc(NC(=S)NC(=O)c2cccs2)sc1C | active: 50.1 µM | –
21 | CCS(=O)(=O)N1CCc2cc(C(=O)N3CCN(c4cccc(C(F)(F)F)c4)CC3)ccc21 | inconclusive: 22.4 µM [inhibitor, single point] | –
22 | Cc1nc(N)sc1-c1csc(Nc2ccc(S(N)(=O)=O)cc2)n1 | inconclusive: 70.8 µM [inhibitor, partial curve, poor fit] | –
23 | Cc1ccc(NC(=O)C(=O)NCC(c2cccnc2)N2CCOCC2)cc1C (stereo not given) | inconclusive: 8.91 µM [inhibitor, partial curve, poor fit] | –
24 | CCc1ccc(OC(=O)CSc2nnc(-c3ccc4c(c3)OCO4)o2)cc1 | inactive | –

Row | Structure (SMILES) | Potency | activity, negative = inhibition
25 | O=C(Nc1ccc(Cl)cc1)Nc1cc(S(=O)(=O)N2CCOCC2)ccc1N1CCCC1 | active: 39.8 µM | –
26 | CSCCC(NC(=O)c1cccc([N+](=O)[O-])c1)c1nc2ccccc2[nH]1 (stereo not given) | inconclusive: 28.2 µM [inhibitor, single point] | –
27 | Cc1cc(C)c(S(=O)(=O)N2CCOC2CNC(=O)C(=O)NCc2cccnc2)c(C)c1 (stereo not given) | inactive | –
28 | CC(=O)c1ccccc1C(=O)N1CCCC(CNC(=O)c2ccccc2Cl)C1 (stereo not given) | inactive | –
29 | c1ccc(Cn2nnc3cnccc32)cc1 | inconclusive: 39.8 µM [inhibitor, single point] | –
30 | O=C(Nc1ccc2c(c1)OCCO2)C1CC(O)CN1C(=O)Nc1ccccc1 (stereo not given) | inactive | –
31 | CCCCn1c(SCC(=O)Nc2nnc(C(C)C)s2)nc2c1c(=O)n(C)c(=O)n2C | inactive | –
32 | N#C/C=C1\Sc2ccccc2C(=O)N1CC(=O)N1CCN(S(=O)(=O)c2ccccc2)CC1 | active: 70.8 µM | –
33 | CC(=O)Cn1cnc2c(sc3nc(C)cc(C)c32)c1=O | inactive | –
34 | O=C(CCCN1C(=O)/C(=C/c2cccs2)SC1=S)NNC(=O)c1cccnc1 | inactive | –
35 | COc1cc(-c2cc(-c3ccc(N)cc3)[nH]c(=O)c2C#N)cc(OC)c1OC | inconclusive: 1.26 µM [inhibitor, partial curve, poor fit] | –
36 | Fc1cccc(-c2nc(-c3ccncc3)no2)c1 | inactive | –
37 | COc1ccc(NC(=O)c2c3c(nc4ccccc24)CCC3)cc1S(=O)(=O)N1CCOCC1 | inconclusive: 39.8 µM [inhibitor, single point] | –
38 | NC(=S)c1c(Cl)cc(C(F)(F)F)cc1Cl | inactive | –
39 | CCc1nnc(NC(=O)CN2CCN(Cc3ccc(F)cc3)CC2)s1 | inactive | –
40 | Oc1cccc(C(Nc2ccccn2)c2ccc3cccnc3c2O)c1Cl (stereo not given) | inconclusive: 28.2 µM [inhibitor, single point] | –
41 | N=C1C(c2ccccc2)=C(O)CN1c1cccc(O)c1 | inconclusive: 39.8 µM [inhibitor, partial curve, poor fit] | –
42 | COc1ccc(-c2csc(NC(=O)C3CSC4(C)CCC(=O)N34)n2)c(OC)c1 (stereo not given) | inconclusive: 56.2 µM [inhibitor, partial curve] | –
43 | CCNc1ccc(N=Nc2c(C)n(C)n(-c3ccccc3)c2=O)cc1 | inconclusive: 56.2 µM [inhibitor, partial curve, poor fit] | –
44 | COc1ccc(N2CCN(c3nc(Cl)nc(N4CCOCC4)n3)CC2)cc1 | active: 7.94 µM | –
45 | CCCc1cc(Nc2cccc(OC)c2)n2ncnc2n1 | inactive | –
46 | CCOCCCNC(=O)C(c1ccc(OC)cc1)N(Cc1cccs1)C(=O)c1ccc(NC(C)=O)cc1 (stereo not given) | inactive | –
47 | O=C(COc1cc2oc(=O)c3c(c2cc1Cl)CCC3)Nc1ccccn1 | inconclusive: 79.4 µM [inhibitor, single point] | –
48 | Cn1c(NCCc2ccccc2)cc(=O)n(C)c1=O | inconclusive: 79.4 µM [inhibitor, partial curve, poor fit] | –

Row | Structure (SMILES) | Potency | activity, negative = inhibition
49 | COc1ccc(/C=N/NC(=O)CCn2cnc(-c3ccccc3)c2-c2ccccc2)cc1 | inconclusive: 39.8 µM [inhibitor, single point] | –
50 | O=C(/C=C/c1cccc(Cl)c1)c1ccc([N+](=O)[O-])o1 | inconclusive: 3.55 µM [inhibitor, single point] | –
51 | CC(=O)c1ccc(N(C(=O)Cc2c[nH]c3ccccc23)C(C(=O)NC2CCCCC2)c2cccs2)cc1 (stereo not given) | inconclusive: 31.6 µM [inhibitor, single point] | –
52 | Cn1c(=O)c2c(ncn2CC(=O)Nc2ccccc2N2CCOCC2)n(C)c1=O | inconclusive: 89.1 µM [inhibitor, single point] | –
53 | O=[N+]([O-])c1ccc(-n2cccn2)c(-c2nn[nH]n2)c1 | inconclusive: 56.2 µM [inhibitor, partial curve, poor fit] | –
54 | Cc1[nH]nc2c1-c1nc3ccccc3nc1C(C)(C)C2 | inconclusive: 17.8 µM [inhibitor, partial curve, poor fit] | –
55 | C1CCCCCC(=NNc2nn[nH]n2)CCCCC1 | active: 3.16 µM | –
56 | COc1cccc(/C=C2/Sc3ccc(C(=O)NCCCN4CCCC4)cc3NC2=O)c1 | inactive | –
57 | COc1cccc(NC(=S)NC2CC3CCCC(C2)N3C2CCCC2)c1 (stereo not given) | inconclusive: 89.1 µM [inhibitor, partial curve, poor fit] | –
58 | Cc1c(CNCc2ccc(Cl)cc2)c(C(=O)O)c(C)n1Cc1ccc(F)cc1 | inactive | –
59 | CCOC(=O)c1sc(NCCNc2nc(C)c(C(=O)OCC)s2)nc1C | active: 50.1 µM | –
60 | CCOc1ccc(CNS(=O)(=O)c2ccc3[nH]c4c(c3c2)CCCC4)cc1OC | inconclusive: 14.1 µM [inhibitor, partial curve, poor fit] | –
61 | COc1ccc(NC(=O)CSc2nc3nc(C)cc(C)n3n2)cc1 | inactive | –
62 | COc1ccc(CN2CN(C(C)C)CSC2=S)cc1 | inconclusive: 44.7 µM [inhibitor, partial curve, poor fit] | –
63 | Cc1ccc(-c2nc(N)sc2CC(=O)OCC(=O)NC2CCCC(C)C2C)cc1 (stereo not given) | inconclusive: 79.4 µM [inhibitor, partial curve, poor fit] | –
64 | CCn1c(SCC(=O)N(C)C)nc2cc(S(=O)(=O)N3CCCCC3)ccc21 | inconclusive: 79.4 µM [inhibitor, partial curve, poor fit] | –
65 | O=C(Nc1cccc(S(=O)(=O)c2cccc(NC(=O)C3CC3)c2)c1)C1CC1 | inconclusive: 79.4 µM [inhibitor, partial curve, poor fit] | –
66 | Cc1ccc(C)c(NC(=O)CNC(=O)N2CC(=O)Nc3ccccc32)c1 | inactive | –
67 | Cc1ccc(S(=O)(=O)Nc2ccc(C(=O)Nc3ccncc3)cc2)cc1 | inconclusive: 100 µM [inhibitor, single point] | –
68 | CC(=O)Nc1ccc(NC(=O)CC2Sc3ccccc3NC2=O)cc1 (stereo not given) | inconclusive: 3.98 µM [inhibitor, partial curve, poor fit] | –
69 | Cc1nc(SCC(=O)Nn2c(-c3ccccc3)nc3ccccc3c2=O)n[nH]1 | inconclusive: 22.4 µM [inhibitor, single point] | –
70 | Cc1nn(C(C)C(=O)NCCCN2CCCC2)c(=O)c2nn(-c3ccccc3)c(C)c12 (stereo not given) | inconclusive: 79.4 µM [inhibitor, partial curve, poor fit] | –
